The whole screen tested about 94,000 compounds, of which about 4,000 (4.3%) were called active. Inconclusive results, whose numbers are uncertain, are shown with a selection of clear calls. Calls come from the whole dose curve; as a rule, active = well fitted inhibition curve with a large enough effect; inconclusive = small, poorly fitted or top-dose-only effect; inactive = no such curve, though single readings can be large or run the other way. Where the call is inconclusive, the potency comes from a doubtful curve fit.
Test: Cytotoxic Profiling in NIH 3T3 Cell Line of Diverse Libraries Using Quantitative High-Throughput Screening; note: nearly all actives have a fitted effect of over 55% in size
Conditions: NIH 3T3 viability, CellTiter-Glo ATP luminescence, 48-72 h; series mostly up to 96.7 µM
How it was run: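 Mouse fibroblast NIH 3T3 cells, 400 per well, received compound via pintool and were incubated for 48 or 72 hr prior to CellTiter-Glo ATP luminescence measurement.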
Potency is the fitted concentration of half-maximal effect; tags give direction and shape of the fitted curve.

Structure (SMILES) | Potency
O=C(Nc1cccc(F)c1)N1C[C@@H]2C[C@H](C1)c1c(-c3ccc4ccccc4c3)ccc(=O)n1C2 | inconclusive: 56.2 µM [inhibitor, partial curve, poor fit]
CN1CCC(NC(=O)c2nc3nc(-c4ccccc4)c(-c4cccc(O)c4)cc3n2C)CC1 | active: 11.2 µM
Cc1ccc(C(=O)N2CCC(c3n[nH]c(=O)n3Cc3ccc(F)cc3)CC2)cc1 | inactive
Cc1ccccc1NC(=O)CN1C(=O)NC2(CCC(C)CC2)C1=O (stereo not drawn) | inactive
O=Cc1cccc(N2CCN(C(=O)N3CCCC3)CC2=O)c1 | inconclusive: 79.4 µM [inhibitor, partial curve]
Cc1ccccc1C(=O)N1CCCC(C(=O)N2CCC(N3CCOCC3=O)CC2)C1 (stereo not drawn) | inactive
CCn1ccc2oc(C)c(C(=O)NCc3ccc(F)cc3Cl)c2c1=O | inconclusive: 50.1 µM [inhibitor, partial curve, poor fit]
CN(C)C(=O)CCC(=O)N1CCN(Cc2ccccc2)CC(O)C1 (stereo not drawn) | inactive
CCn1ccc(C(=O)N2CC[C@H]3C(=O)NCCCCCCN(Cc4ccncc4)[C@@H]3C2)n1 | inactive
Cc1occc1C(=O)N1CCC(C2CCN(c3ncccn3)CC2)C1 (stereo not drawn) | inconclusive: 44.7 µM [inhibitor, partial curve]
COC(=O)c1ccc2nc(CO[C@H]3CN(Cc4ccccc4C)C[C@H]3F)[nH]c2c1 | inconclusive: 100 µM [inhibitor, partial curve, poor fit]
Cc1ccc(-c2cc(N3CCCN(C(=O)Cc4ccccc4)CC3)n[nH]2)cc1C | active: 39.8 µM
O=C(NCCN1CCCCC1)c1c(-c2cncnc2)cc(=O)n2c1CCCC2 | inactive
CC1CCN(c2ccc(CNC(=O)C3CCCN(Cc4ccncc4)CCC(=O)NCC3)cc2)CC1 (stereo not drawn) | inconclusive: 44.7 µM [inhibitor, partial curve, poor fit]
O=C(Cc1cccc(Cl)c1)N1CCCC(c2nn(-c3cccc(Cl)c3)c(=O)[nH]2)C1 (stereo not drawn) | inconclusive: 50.1 µM [inhibitor, partial curve, poor fit]
O=[S+]([O-])(c1ccccc1)N1CCc2nc(C3CC3)nc(-c3ccc(Cl)cc3)c2CC1 | inconclusive: 28.2 µM [inhibitor, partial curve, poor fit]
O=C(NC1CCCN(c2ccnc3ccnn23)C1)c1ccc(Cl)cc1 (stereo not drawn) | inconclusive: 20 µM [inhibitor, full curve]
Cc1noc(C)c1[S+](=O)([O-])NC1CCN(C(=O)c2ccc(-c3cncnc3)cc2)CC1 | inactive
O=C(NC1CCCCC1)c1cn2cc(-c3cccc(C(F)(F)F)c3)sc2n1 | inactive
COc1ccc(CNC(=O)[C@@H](C)C2CC[C@@]3(C)CC[C@H](NC(=O)COc4ccccc4)[C@@H](C)[C@@H]3[C@H]2O)cc1 (stereo partly drawn) | active: 31.6 µM
Cn1c(CO[C@H]2CN(Cc3ccc4c(c3)OCCO4)C[C@H]2F)nc2ccccc21 | active: 89.1 µM

Structure (SMILES) | Potency
CCNC(=O)NC[C@@H]1C=C(C)[C@H](CC(=O)NCCN(C)C)C[C@H]1C(C)C | inactive
O=C(Cn1nc(-c2ccco2)ccc1=O)NC1CCCc2c1[nH]c1ccccc21 (stereo not drawn) | inconclusive: 50.1 µM [inhibitor, partial curve, poor fit]
O=C1NCc2ccc(-c3cc4c(ccn4Cc4cccnc4)c(C4=CCOCC4)n3)cc21 | inconclusive: 10 µM [inhibitor, full curve, poor fit]
O=[N+]([O-])c1cccc(-c2noc([C@@H]3C[C@@H](O)CN3Cc3ccccc3O)n2)c1 | inconclusive: 100 µM [inhibitor, partial curve, poor fit]
CC1(COc2ccc3[nH]ccc3c2)COc2ccc(C(=O)NC3CC3)cc2N1 (stereo not drawn) | inconclusive: 79.4 µM [inhibitor, partial curve]
O=C(c1cc(-c2ccc(F)cc2)nc2ccccc12)N1CCCC1c1nc(C2CCOCC2)no1 (stereo not drawn) | inconclusive: 35.5 µM [inhibitor, partial curve]
CC(C)c1ccc(C(=O)NCc2c[nH]c3ncccc23)cc1 | inconclusive: 79.4 µM [inhibitor, partial curve]
O=S(=O)(c1ccc(F)cc1F)N1CCCC(Cn2c(C3CC3)nc3cccnc32)C1 (stereo not drawn) | inconclusive: 50.1 µM [inhibitor, partial curve, poor fit]
OC(COc1ccccc1CNCCc1ccccc1)CN1CCSCC1 (stereo not drawn) | inconclusive: 7.94 µM [inhibitor, full curve, poor fit]
O=C(O)CCC(=O)N1CCC2(Cc3ccccc3N(C(=O)C3CCCC3)C2)C1 (stereo not drawn) | inactive
COc1cccc(C(=O)N2CCC(N3C(=O)c4c(c(C)nn4-c4ccccc4)C3C)C2)c1 (stereo not drawn) | inconclusive: 12.6 µM [inhibitor, partial curve, poor fit]
O=C(c1ccncc1)N1CCC2(CC1)NC(=O)N(Cc1ccccc1Cl)C2=O | inactive
O=C(Nc1cccn2nc(C3CCC3)nc12)c1cccc(C(F)(F)F)c1 | inconclusive: 50.1 µM [inhibitor, partial curve, poor fit]
CCn1cc(-c2ccc(C)cc2)cc1C(=O)NCCCN1CCOCC1 | inconclusive: 50.1 µM [inhibitor, partial curve, poor fit]
O=C(NC1CCC(O)CC1)c1ccc2c(c1)OCCN(c1ccccc1)C2 (stereo not drawn) | inconclusive: 22.4 µM [inhibitor, full curve, poor fit]
Cc1nnc(CN(C)C(=O)c2cccc(S(=O)(=O)N3CCOCC3)c2)o1 | inactive
c1ccc(CN2CCC[C@H]2c2nc(-c3ccc(-n4ccnc4)nc3)no2)cc1 | inconclusive: 79.4 µM [inhibitor, partial curve, poor fit]
O=C1CC2(CCN(C(=O)c3ccc(Cl)cc3)C2)Nc2ccccc2N1 (stereo not drawn) | inactive
CN1CCC(C(=O)N2Cc3ccccc3CC3(CCN(Cc4cccnc4)C3)C2)CC1 (stereo not drawn) | inconclusive: 50.1 µM [inhibitor, partial curve, poor fit]
Cn1ccnc1C(=O)N1CCC(N2C(=O)C3(CCCC3)C2c2ccccc2)CC1 (stereo not drawn) | inconclusive: 70.8 µM [inhibitor, single point]
COCc1nc(CCNC(=O)CCC2CCCC2)no1 | inconclusive: 50.1 µM [inhibitor, partial curve, poor fit]

Structure (SMILES) | Potency
CN1CC(=O)N(c2ccccc2F)Cc2c(NCCCc3ccccc3)ncnc21 | inconclusive: 44.7 µM [inhibitor, partial curve, poor fit]
Cc1noc2c(N3CCN(Cc4ccccc4)CC3)cc(-c3cccnc3)nc12 | inconclusive: 63.1 µM [inhibitor, partial curve, poor fit]
Cc1ccccc1Nc1n[nH]c(C(O)c2cccc(C(F)(F)F)c2)n1 (stereo not drawn) | inconclusive: 100 µM [inhibitor, single point]
Cc1cc(C(F)(F)F)nn1CC(=O)NCCn1c(C)cnc1C1CCC1 | inactive
CC(C)c1nn(C)c2c1C(c1cccc3c1OC(C)(C)C3)CC(=O)N2 (stereo not drawn) | inconclusive: 89.1 µM [inhibitor, single point]
CCOC(=O)[C@@H]1[C@@H](OC)C(=O)N(Cc2ccccc2)C12CCN(C(=O)C1CCC1)CC2 | inconclusive: 70.8 µM [inhibitor, single point]
O=C1NCCCCCCN(Cc2cccc(OC(F)(F)F)c2)[C@H]2CCC[C@@H]12 | inconclusive: 50.1 µM [inhibitor, partial curve, poor fit]
O=C(NCC1CCCO1)c1ccc(-c2ccc(N3CCSCC3)nc2)cc1 (stereo not drawn) | inactive
O=C1NC2(CCN(Cc3ccncc3)CC2)Oc2ccccc21 | inconclusive: 31.6 µM [inhibitor, full curve]
COCC1CN(C2CCC2)CC12CCN(C(=O)COc1ccccc1)CC2 (stereo not drawn) | inconclusive: 70.8 µM [inhibitor, single point]
COCCNC(=O)CC(c1ccc(Cl)cc1)c1c[nH]c2ccc([N+](=O)[O-])cc12 (stereo not drawn) | inconclusive: 44.7 µM [inhibitor, partial curve, poor fit]
Cc1ccc(Nc2ccnc(N3CCC(NC(=O)c4ccc(F)cc4)CC3)n2)cc1 | active: 35.5 µM
COc1ccc(CC(=O)N2CCc3nc(C4CC4)nc(-c4ccc(O)cc4)c3CC2)cc1 | inconclusive: 79.4 µM [inhibitor, single point]
COc1ccc(S(=O)(=O)N2CCC(n3cnnc3-c3ccccc3)CC2)cc1OC | inconclusive: 70.8 µM [inhibitor, partial curve, poor fit]
CN(C)C(=O)N1CCN(Cc2ccccc2-c2ccccc2F)CC1 | inconclusive: 44.7 µM [inhibitor, partial curve, poor fit]
COc1ccccc1Nc1ccnc(N2CCN(C(=O)NC(C)C)CC2)n1 | inconclusive: 44.7 µM [inhibitor, partial curve, poor fit]
Cc1ccc(C(=O)N2CCC(Oc3ccc(C(=O)N4CCOCC4)cn3)CC2)cc1 | inconclusive: 50.1 µM [inhibitor, single point]
C/C=C/CN1C[C@@H](NC(=O)c2cccc(N(C)C)c2)C[C@H]1C(=O)NCC | inactive
CC(C)Cc1cc(CNC(=O)Nc2nnc(C(C)(C)C)s2)on1 | inconclusive: 79.4 µM [inhibitor, partial curve, poor fit]
O=C(CC1CCCC1)N1CCCC(Cc2nc(C3CCOCC3)no2)C1 (stereo not drawn) | inconclusive: 44.7 µM [inhibitor, partial curve, poor fit]
COCC(=O)N[C@H]1CO[C@H]2[C@@H]1OC[C@@H]2Nc1nccc(-c2ccc(OC)cc2)n1 | inactive

Reference: PubChem BioAssay AID1345082 (National Center for Advancing Translational Sciences (NCATS), 2018)
